# Test results reported in the supplement of paper PMC9433436.
# ± gives the standard deviation of the averaged measurements. Over roughly 4,100 sequences, “relative kcat/Km (krel) vs genomic leader AAAGAU” has its median near 1.7; the highest 2% begin near 6.5. The entries are a selection whose mix differs from that of the whole data set.
# Target: T1, E. coli RNase P holoenzyme (M1 P RNA + rnpA protein) (UniProt P0A7Y8)
# T1 sequence: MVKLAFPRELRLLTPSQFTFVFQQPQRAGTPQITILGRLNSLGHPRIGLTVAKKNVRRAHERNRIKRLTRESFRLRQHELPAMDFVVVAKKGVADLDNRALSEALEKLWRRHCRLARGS
# Test: relative kcat/Km (krel) vs genomic leader AAAGAU (relative (reference leader = 1)); higher = faster RNase P cleavage
# Procedure: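 HTS-Kin: a pool of ptRNA-Met (21C construct) with all 4096 combinations of 5' leader nucleotides N(-6) to N(-1) was processed in vitro by E. coli RNase P (P RNA + rnpA/C5 protein) under multiple-turnover conditions at 37 C, pH 8, 17.5 mM MgCl2. Residual substrate was Illumina-sequenced at several fractions reacted, and relative kcat/Km (krel) was computed by internal competition kinetics, calibrated to the genomic leader (AAAGAU = 1). The listed hexamer is the varied N(-6)..N(-1) leader (DNA letters), and it sits between a fixed 5' stem-loop flank (GCAUGCACGAAAGUGCGUGCUAUGAA) and the mature tRNA-Met starting GGCUACGUAGCUCAGUUGG. Two technical replicates are averaged.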
# [1] = fraction of substrate reacted: ~9-10% (9.79% repeat 1, 9.1% repeat 2)
# [2] = fraction of substrate reacted: ~13-16% (15.68% repeat 1, 13.17% repeat 2)
# [3] = fraction of substrate reacted: ~26-29% (28.66% repeat 1, 26.4% repeat 2)
Sequence,relative kcat/Km [1],relative kcat/Km [2],relative kcat/Km [3]
AAAATA,1.99 ± 0.77,1.39 ± 0.27,1.48 ± 0.29
TCAATA,1.94 ± 0.68,1.41 ± 0.13,2.04 ± 0.44
TCAGAT,1.79 ± 0.51,1.84 ± 0.47,2.74 ± 1.1
GGACAG,1.29 ± 1.1,1.1 ± 0.61,2.25 ± 0.42
CCACAA,2 ± 1.3,1.11 ± 0.28,1.97 ± 0.076
ATTGTC,1.6 ± 1.2,1.13 ± 0.5,1.27 ± 0.089
AATGAT,–,0.785 ± 0.19,1.01 ± 0.46
CCCAGA,3.55 ± 1.8,3.71 ± 0.36,5.67 ± 1.6
GAAAGA,2.87 ± 0.97,2.67 ± 0.36,3.03 ± 0.93
CTACGT,0.396 ± 0.012,0.978 ± 0.12,1.13 ± 1.1
TTGTAT,2.5 ± 0.42,3.63 ± 0.7,5.73 ± 2.7
TAGCCA,1.23 ± 0.58,1.16 ± 0.53,1.5 ± 0.041
TCAAGT,0.352 ± 0.22,–,–
GTTAGC,2.31 ± 1.2,2.84 ± 0.39,4.17 ± 1.6
TTATGA,4.01 ± 1.1,4.52 ± 1.5,6.17 ± 2.4
GGCTGC,2.18 ± 0.96,1.98 ± 0.51,3.23 ± 1.1
TTTATG,–,1.01 ± 0.36,2.41 ± 0.31
GGTAAT,1.63 ± 1.2,1.87 ± 0.11,3.01 ± 1.2
CCCTCG,1.92 ± 1,1.67 ± 0.5,2.44 ± 0.18
GATGAG,–,–,0.577 ± 0.44
GGTAGG,–,–,1.74 ± 0.56
GCTTGC,1.53 ± 0.25,2 ± 0.29,2.24 ± 0.16
TTAATT,2.28 ± 0.9,2.55 ± 0.086,3.26 ± 1.3

Sequence,relative kcat/Km [1],relative kcat/Km [2],relative kcat/Km [3]
TGCGCT,1.39 ± 0.96,0.987 ± 0.66,0.931 ± 0.1
TATGAT,–,0.9949 ± 0.0058,1.35 ± 0.48
ACTCAT,2.15 ± 1.1,3.17 ± 0.74,4.67 ± 1.8
AGTAGC,2.5 ± 0.87,3.129 ± 0.0091,4.16 ± 1.5
TACTAC,5.21 ± 2,6.73 ± 1.9,9.59 ± 4
CGGTCA,1.35 ± 0.55,1.02 ± 0.14,1.03 ± 0.035
GAGCGA,–,1.11 ± 0.029,2.03 ± 0.083
ATAACA,0.435 ± 0.37,0.897 ± 0.17,1.43 ± 0.58
ATAGTG,–,0.232 ± 0.052,0.534 ± 0.12
AGTCTA,2.09 ± 0.71,2.64 ± 0.35,3.02 ± 0.93
ATCCAA,3.15 ± 0.43,4.2 ± 1.2,6.3 ± 2.3
GGGAAC,0.777 ± 0.4,0.986 ± 0.2,1.59 ± 0.99
ACACTT,1.46 ± 0.96,1.91 ± 0.27,2.34 ± 0.7
ATAAGA,1.69 ± 0.23,2.23 ± 0.39,3.63 ± 1.3
CGCAGA,3.15 ± 0.35,3.16 ± 0.97,5.53 ± 2.5
GAGGGA,–,–,1.45 ± 1
GTTTGA,2.67 ± 0.19,3.75 ± 1.1,5.98 ± 2
CCATAC,3.28 ± 1.1,3.35 ± 0.48,4.57 ± 1
CATACT,2.36 ± 0.94,1.75 ± 0.31,2.93 ± 1.1
CTATAT,4.48 ± 1.6,5.55 ± 0.85,7.37 ± 2.9
GCGTAG,0.68 ± 0.52,0.736 ± 0.18,1.76 ± 0.13
GGTACA,1.32 ± 0.12,1.26 ± 0.42,1.65 ± 0.83
CCTGAG,1.01 ± 0.076,–,1.43 ± 0.3

Sequence,relative kcat/Km [1],relative kcat/Km [2],relative kcat/Km [3]
CCGGCC,1.66 ± 0.4,0.625 ± 0.54,–
AAGACA,–,1.23 ± 0.58,1.27 ± 0.12
TAATTA,2.15 ± 1.5,2.05 ± 0.57,2.99 ± 1.1
GGGTAG,0.364 ± 0.18,0.447 ± 0.1,1.45 ± 0.65
GTTTGC,2.91 ± 0.62,3.18 ± 0.81,5.13 ± 1.9
GATACA,1.48 ± 1.3,1.55 ± 0.13,2.07 ± 0.37
AGCAGA,2.87 ± 1,3.03 ± 0.52,4.52 ± 1.2
AGCGAT,–,1.3 ± 0.62,1.74 ± 0.95
GGGAAG,–,0.702 ± 0.34,1.37 ± 0.3
TGCGAC,2.22 ± 0.51,2.13 ± 0.43,2.9 ± 0.61
AGGAAG,–,–,1.17 ± 0.35
CGGCAC,–,0.199 ± 0.051,1.36 ± 0.12
ACGCAC,1.83 ± 0.3,2.12 ± 0.95,3.59 ± 1.2
CCCACA,3.1 ± 1.1,2.72 ± 0.73,3.98 ± 1.2
CAGTCC,2.61 ± 1.2,2.57 ± 0.42,3.18 ± 1.2
TCTTGG,–,–,0.662 ± 0.22
TGGAAT,1.2 ± 1.2,1.38 ± 0.81,1.39 ± 0.72
AACGTC,3.14 ± 0.98,2.925 ± 0.0087,3.65 ± 1.3
GTCCGG,–,–,1.17 ± 0.26
CTAGAT,–,1.15 ± 0.17,1.83 ± 0.17
GTGGGC,–,–,0.684 ± 0.56
AATACG,–,–,1.3 ± 0.24
TGTAAA,3.21 ± 0.83,3.92 ± 0.81,5.91 ± 2.4

Sequence,relative kcat/Km [1],relative kcat/Km [2],relative kcat/Km [3]
CAGGGA,–,0.949 ± 0.58,1.06 ± 1
GGCGTG,–,–,0.503 ± 0.2
AAACAC,1.97 ± 0.27,1.84 ± 0.73,3.04 ± 1.1
GCAAAG,–,–,0.616 ± 0.086
ACCGTT,1.28 ± 0.8,1.57 ± 1.3,2.09 ± 1.2
ACGGTC,–,–,1.71 ± 1.7
CGGTCG,0.745 ± 0.15,–,0.557 ± 0.52
CTGCCA,1.58 ± 1,0.692 ± 0.67,1.19 ± 0.3
AGCTCG,1.18 ± 0.16,1.15 ± 0.28,2.12 ± 0.41
CTATCA,1.75 ± 0.56,1.57 ± 0.39,2.66 ± 0.79
AGCGAA,3.33 ± 1,3.07 ± 0.78,4.19 ± 1.2
CGTGCT,–,–,0.773 ± 0.17
TGATGA,2.96 ± 1.2,3.7 ± 0.48,5.44 ± 1.6
AGATAG,2.15 ± 1.1,1.52 ± 0.42,3.47 ± 0.88
CTGTCA,2.15 ± 1.4,1.44 ± 0.43,1.96 ± 0.52
TGTGTT,–,–,1.29 ± 1.3
TTCTGC,4.12 ± 0.25,5.95 ± 2.2,8.28 ± 3.5
GTTATA,2.5 ± 1.4,2.5 ± 0.5,3.36 ± 1.1
TGTCCC,2.24 ± 0.07,2.39 ± 0.16,3.36 ± 1.3
CTGCCC,1.61 ± 0.018,0.948 ± 0.56,1.2 ± 0.47
GATAGG,0.642 ± 0.43,0.672 ± 0.65,0.997 ± 0.033
CACACA,3.18 ± 2.2,3.49 ± 0.55,4.58 ± 2.1
CTAATC,2.06 ± 1.6,1.32 ± 0.17,1.81 ± 0.34

Sequence,relative kcat/Km [1],relative kcat/Km [2],relative kcat/Km [3]
GTCAGG,0.667 ± 0.23,1.03 ± 0.2,2.57 ± 1.1
AACTCG,1.54 ± 1.4,0.733 ± 0.27,2.22 ± 0.29
TATGTG,–,–,0.506 ± 0.12
CGTCCA,1.68 ± 1.7,1.5 ± 0.38,1.99 ± 0.085
TTAGTC,1.86 ± 0.93,2.21 ± 0.28,2.38 ± 1.1
ACAATA,1.13 ± 1.1,0.832 ± 0.79,1.73 ± 0.44
ACTCCC,1.78 ± 1.7,1.64 ± 0.38,1.8 ± 0.23
AAGTAG,–,1.2 ± 0.21,2.2 ± 0.72
GATACG,–,–,1.52 ± 0.09
GATATA,1.7 ± 0.6,1.98 ± 0.03,2.46 ± 0.75
CACCGA,3.39 ± 1.4,3.9 ± 0.93,6.22 ± 2.1
CTTCGT,–,–,1.66 ± 1.4
CGATGT,0.484 ± 0.21,1.12 ± 0.33,1.49 ± 0.93
TCACCC,2.5 ± 0.66,3.06 ± 1.3,3.96 ± 1.5
AGTGTC,0.63 ± 0.6,0.82 ± 0.16,0.814 ± 0.22
TATGCG,–,0.187 ± 0.093,1.16 ± 0.3
GTAGAC,2.16 ± 1,2.75 ± 0.35,3.99 ± 1.2
TACTGG,–,–,0.667 ± 0.43
GCATCG,–,–,0.878 ± 0.094
AGTTCC,3.25 ± 2.4,3.05 ± 0.096,4.18 ± 1.5
GTCTGT,–,–,2.58 ± 2
GTATTC,3.21 ± 1.9,2.98 ± 0.079,4.2 ± 1.5
GAGGAG,–,–,0.297 ± 0.24

Sequence,relative kcat/Km [1],relative kcat/Km [2],relative kcat/Km [3]
AGTTTC,2.42 ± 0.73,3 ± 0.13,4.38 ± 1.6
CGTATC,1.67 ± 0.75,2.89 ± 0.43,3.65 ± 1.5
CTGATC,2.07 ± 0.34,1.61 ± 0.62,2.15 ± 0.27
GACGAC,3.35 ± 0.49,5.87 ± 1.6,–
GGGCAT,1.03 ± 0.31,1.51 ± 0.12,2.18 ± 0.97
GGATCC,1.23 ± 0.24,1.07 ± 0.62,1.62 ± 0.37
AAGCGG,0.584 ± 0.11,0.42 ± 0.41,0.735 ± 0.021
CATGTT,0.204 ± 0.0037,0.575 ± 0.33,0.884 ± 0.32
TAAGAC,1.72 ± 0.2,2.71 ± 1.3,3.73 ± 1.8
GACCAT,3.62 ± 2.1,3.91 ± 0.13,5.96 ± 1.9
GCATTC,1.27 ± 0.44,1.91 ± 0.57,3.19 ± 1.1
TGGTCC,0.659 ± 0.25,1.17 ± 1.2,1.18 ± 0.53
ATGCAT,0.782 ± 0.021,1.19 ± 0.42,2.14 ± 0.41
GGCTGA,1.83 ± 1.7,1.94 ± 0.094,2.86 ± 0.5
TGTTAC,3.59 ± 1.3,5.21 ± 1.2,8.19 ± 3.8
GTGCTA,–,0.879 ± 0.58,1.04 ± 0.27
TCCTGA,3.23 ± 0.83,4.19 ± 0.42,6.6 ± 2.5
GAATCA,1.63 ± 1.6,1.59 ± 0.061,2.25 ± 0.76
